Screen size: about 310,000 compounds; about 2,200 (0.71%) showed an effect of 50% or more. Effects have a minus sign here. This is one part of the list.

The target of this test is human ether-à-go-go-related gene (hERG) potassium channel (human, UniProt Q12809). Nature of the test: primary screen, population patch clamp on CHO cells stably expressing hERG.
human ether-à-go-go-related gene (hERG) potassium channel, sequence (Q12809 whole entry, looked up): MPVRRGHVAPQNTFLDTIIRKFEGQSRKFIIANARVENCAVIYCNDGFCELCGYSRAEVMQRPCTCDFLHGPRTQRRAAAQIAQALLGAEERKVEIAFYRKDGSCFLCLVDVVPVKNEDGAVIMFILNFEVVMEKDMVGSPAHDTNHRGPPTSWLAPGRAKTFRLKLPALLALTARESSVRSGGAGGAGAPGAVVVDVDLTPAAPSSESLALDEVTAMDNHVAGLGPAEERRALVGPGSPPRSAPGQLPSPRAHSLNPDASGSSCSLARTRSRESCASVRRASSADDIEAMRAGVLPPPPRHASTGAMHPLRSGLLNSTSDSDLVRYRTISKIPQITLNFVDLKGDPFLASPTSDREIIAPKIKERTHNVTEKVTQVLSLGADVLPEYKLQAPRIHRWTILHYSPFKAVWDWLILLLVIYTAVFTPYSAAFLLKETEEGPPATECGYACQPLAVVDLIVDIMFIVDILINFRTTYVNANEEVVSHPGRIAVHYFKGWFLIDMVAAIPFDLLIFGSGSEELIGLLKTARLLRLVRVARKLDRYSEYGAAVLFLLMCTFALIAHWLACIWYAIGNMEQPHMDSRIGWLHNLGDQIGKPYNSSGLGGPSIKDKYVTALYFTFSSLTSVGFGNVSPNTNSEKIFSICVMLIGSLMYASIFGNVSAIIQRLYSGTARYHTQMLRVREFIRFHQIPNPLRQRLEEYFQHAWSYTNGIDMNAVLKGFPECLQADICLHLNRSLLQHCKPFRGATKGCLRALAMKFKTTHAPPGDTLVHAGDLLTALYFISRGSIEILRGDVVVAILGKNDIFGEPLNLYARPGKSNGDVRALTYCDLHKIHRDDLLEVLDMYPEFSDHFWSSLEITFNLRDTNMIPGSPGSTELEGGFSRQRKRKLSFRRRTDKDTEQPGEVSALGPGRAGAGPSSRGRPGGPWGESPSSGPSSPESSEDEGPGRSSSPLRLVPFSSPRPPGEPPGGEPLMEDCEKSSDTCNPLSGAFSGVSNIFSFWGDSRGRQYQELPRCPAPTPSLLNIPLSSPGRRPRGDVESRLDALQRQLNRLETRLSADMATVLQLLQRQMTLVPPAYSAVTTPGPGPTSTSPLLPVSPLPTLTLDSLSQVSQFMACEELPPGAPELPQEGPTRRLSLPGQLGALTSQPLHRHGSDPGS
With `CCO[C@H]1OC(C(=O)N2CCCCCCC2)=C[C@@H](c2coc3ccccc3c2=O)[C@@H]1CCCO`, the “hERG current change (%, negative = inhibition) at 1uM” value was found to be 3.19%. The same measure for `CCOC(=O)N1CCN(C(=S)Nc2ccccc2C(C)C)CC1`: 4.46%; for `c1ccc(CN2CCN(Cc3cn4cccnc4n3)CC2)cc1`: 13.4%; for `O=S(=O)(c1ccccc1C(F)(F)F)N1CCC(n2cnc3ccccc32)CC1`: -20.7%.

Regarding `Fc1ccc(COc2ccccc2CNc2nn[nH]n2)cc1`, the “hERG current change (%, negative = inhibition) at 1uM” value is given as 11.5%. The same measure for `CCc1ccc(N(CC(=O)NCCc2ccccc2)C(=O)CCC(=O)Nc2ccccn2)cc1`: 5.65%; for `CNc1ccccc1C(=O)OC(C)C(=O)Nc1ccc(Cl)cn1` (stereo not drawn): 7.14%; for `C=CCn1c(NCc2ccc(OC)cc2O)nc2ccccc21`: 8.41%. For `O=C(CSc1nnnn1C1CCCCC1)Nc1ccccc1F` the value was 17.5%; for `NS(=O)(=O)c1ccc(NC(=O)CSc2nc3c(c(=O)[nH]2)CCCC3)cc1`, 9.72%. The same measure for `CCOc1cc2nc(-c3ccc(OC)c(OC)c3)nc(N3CCOCC3)c2cc1OC`: -12.7%; for `COc1ccc(CNC(=O)CSc2nccn(-c3ccc(F)c(F)c3)c2=O)cc1`: 2.84%. Consider `CCOC(=O)c1ccc(N2CCN(c3ccccc3F)CC2)c(NC(=O)Nc2ccccc2)c1`, for which the “hERG current change (%, negative = inhibition) at 1uM” value is given as 9.63%. The same measure for `CCOc1ccccc1NC(=O)C1CCN(C(=O)Cc2ccccc2)CC1`: -2.58%; for `CCc1cc2c(=O)[nH]c(Cc3ccc(Cl)cc3)nc2s1`: 7.22%. Turning to `O=C(CCn1c2c(c3ccccc31)CCCC2)NNC(=O)c1ccc([N+](=O)[O-])cc1`, the “hERG current change (%, negative = inhibition) at 1uM” value is 7.92%. The same measure for `O=C1NC2(CCCC2)C(=O)N1CC(=O)N(Cc1ccccc1)c1ccccc1`: 3.82%. For `CC1CCc2nn(CC(=O)N3CCCCCC3)cc2C1` (stereo not drawn) the value was -6.55%; for `C/C(CC(=O)NC12CC3CC(CC(C3)C1)C2)=N\NC(=O)c1ccc(F)cc1`, -6.52%. With `CC1(C)CC(=O)c2cn3ncnc3nc2C1`, the “hERG current change (%, negative = inhibition) at 1uM” value is given as -0.182%. The same measure for `COc1ccc(C(=O)OCC(=O)NCc2ccco2)cc1S(=O)(=O)N1CCN(c2cccc(Cl)c2)CC1`: 8.38%; for `O=[N+]([O-])c1ccccc1Nc1nc(-c2cccnc2)cs1`: 10.7%; for `COc1cc(/C=C/C(=O)OCC(=O)NC(=O)NC2CCCCC2)ccc1OC(F)F`: 2.3%. The same measure for `COc1ccc(-c2[nH]ncc2CN2CCCN(C(=O)c3ccco3)CC2)cc1F`: -24.5%.

Values taken from publication PMC4336329 (PLoS ONE, 2015).
